The supplement of paper PMC4967469

How the values were obtained:
Test in all cases: Viability of human cancer cell lines after 72 h of drug (GDSC screen)
[1] = compound: NC(=O)Nc1sc(-c2ccc(F)cc2)cc1C(N)=O [TPCA-1]; settings: top dose 20 µM
Experimental: (§1)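 Human cancer cell lines in 384-well plates, medium with 10% serum, drug for 72 h over a 256-fold dose range (nine 2-fold or five 4-fold steps up to the top dose). Adherent lines were fixed and stained with the nucleic acid dye Syto60, suspension lines read with resazurin; signal relative to control wells, capped at 0 and 100%. One two-parameter sigmoid per drug and line, fitted in a mixed model over all curves with the slope shared within a line.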

[2] = compound: C/C(=C\c1csc(C)n1)[C@@H]1C[C@@H]2O[C@]2(C)CCC[C@H](C)[C@H](O)[C@@H](C)C(=O)C(C)(C)[C@@H](O)CC(=O)O1 [Epothilone B]; settings: top dose 0.032 µM; top dose inferred
Experimental: as §1

[3] = compound: CC(C)CC(=O)Nc1n[nH]c2c1CN(C(=O)C1CCN(C)CC1)C2(C)C [PHA-793887]; settings: top dose 10.24 µM
Experimental: as §1

[4] = compound: CCCS(=O)(=O)Nc1ccc(F)c(C(=O)c2c[nH]c3ncc(Cl)cc23)c1F [PLX4720]; settings: top dose 10 µM
Experimental: as §1

[5] = compound: C[C@@H](N)c1ccc(C(=O)Nc2ccnc3[nH]ccc23)cc1 [Y-39983]; settings: top dose 20 µM; top dose inferred
Experimental: as §1

[6] = screen: GDSC drug entry 1371, top dose inferred

| Cell Line | AUC [1] | IC50 [1] | AUC [2] | IC50 [2] | AUC [3] | IC50 [3] | AUC ([4]; screen: GDSC drug entry 1036) | IC50 ([4]; screen: GDSC drug entry 1036) | AUC [4, 6] | IC50 [4, 6] | AUC [5] | IC50 [5] |
| --- | --- | --- | --- | --- | --- | --- | --- | --- | --- | --- | --- | --- |
| AsPC-1 (pancreas, adherent) | 0.859 | > 20 µM | 0.879 | > 0.032 µM | 0.92 | > 10.2 µM | 0.92 | > 10 µM | 0.888 | > 10 µM | 0.965 | > 20 µM |
| BCPAP (thyroid, adherent) | 0.801 | 8.7 µM | 0.342 | 0.000764 µM | 0.814 | 4.94 µM | 0.836 | 5.79 µM | 0.903 | > 10 µM | 0.921 | > 20 µM |
| BEN (non-small cell lung carcinoma, adherent) | 0.865 | > 20 µM | 0.763 | 0.0132 µM | 0.968 | > 10.2 µM |  |  | 0.985 | > 10 µM | 0.953 | > 20 µM |
| BFTC-905 (bladder, adherent) | 0.91 | > 20 µM | 0.234 | 0.000391 µM | 0.671 | 1.77 µM | 0.959 | > 10 µM | 0.972 | > 10 µM | 0.977 | > 20 µM |
| BFTC-909 (kidney, adherent) | 0.965 | > 20 µM | 0.475 | 0.00171 µM | 0.988 | > 10.2 µM |  |  | 0.924 | > 10 µM | 0.975 | > 20 µM |
| BHT-101 (thyroid, adherent) | 0.794 | 9.52 µM | 0.458 | 0.00153 µM | 0.985 | > 10.2 µM | 0.523 | 0.724 µM | 0.657 | 1.73 µM | 0.962 | > 20 µM |
| BHY (head and neck, adherent) | 0.84 | 13.8 µM | 0.288 | 0.000501 µM | 0.815 | 5.66 µM | 0.966 | > 10 µM | 0.96 | > 10 µM | 0.958 | > 20 µM |
| BICR10 (head and neck, adherent) | 0.984 | > 20 µM | 0.797 | 0.0177 µM | 0.984 | > 10.2 µM | 0.96 | > 10 µM | 0.981 | > 10 µM | 0.985 | > 20 µM |
| BICR22 (head and neck, adherent) | 0.976 | > 20 µM | 0.751 | 0.012 µM | 0.906 | > 10.2 µM | 0.856 | > 10 µM | 0.929 | > 10 µM | 0.975 | > 20 µM |
| BICR78 (head and neck, adherent) | 0.935 | > 20 µM | 0.719 | 0.00931 µM | 0.951 | > 10.2 µM | 0.967 | > 10 µM | 0.972 | > 10 µM | 0.982 | > 20 µM |
| BPH-1 (prostate, adherent) | 0.733 | 6.24 µM | 0.319 | 0.000587 µM | 0.161 | 0.0508 µM | 0.978 | > 10 µM | 0.98 | > 10 µM | 0.982 | > 20 µM |
| BT-20 (breast, adherent) | 0.955 | > 20 µM | 0.641 | 0.00542 µM | 0.892 | > 10.2 µM | 0.962 | > 10 µM | 0.982 | > 10 µM | 0.954 | > 20 µM |
| BT-483 (breast, adherent) | 0.924 | > 20 µM | 0.969 | > 0.032 µM | 0.878 | > 10.2 µM | 0.967 | > 10 µM | 0.975 | > 10 µM | 0.948 | > 20 µM |
| BxPC-3 (pancreas, adherent) | 0.621 | 2.81 µM | 0.455 | 0.00148 µM | 0.794 | 5.39 µM | 0.958 | > 10 µM | 0.951 | > 10 µM | 0.941 | > 20 µM |
| C3A (liver, adherent) | 0.988 | > 20 µM | 0.578 | 0.0033 µM | 0.988 | > 10.2 µM | 0.988 | > 10 µM | 0.976 | > 10 µM | 0.988 | > 20 µM |
| C32 (melanoma, adherent) | 0.987 | > 20 µM | 0.98 | > 0.032 µM | 0.987 | > 10.2 µM | 0.398 | 0.322 µM | 0.611 | 1.29 µM | 0.987 | > 20 µM |
| C-4-I (cervix, adherent) | 0.913 | > 20 µM | 0.6 | 0.00386 µM | 0.966 | > 10.2 µM | 0.986 | > 10 µM |  |  | 0.948 | > 20 µM |
| C-33-A (cervix, adherent) | 0.539 | 1.6 µM | 0.584 | 0.0034 µM | 0.9 | > 10.2 µM | 0.976 | > 10 µM | 0.961 | > 10 µM | 0.864 | 17.5 µM |
| CAKI-1 (kidney, adherent) | 0.751 | 9.76 µM | 0.684 | 0.00852 µM | 0.934 | > 10.2 µM |  |  | 0.935 | > 10 µM | 0.935 | > 20 µM |
| CAL-12T (non-small cell lung carcinoma, adherent) | 0.721 | 5.75 µM | 0.27 | 0.000405 µM | 0.628 | 1.51 µM | 0.875 | > 10 µM | 0.917 | > 10 µM | 0.934 | > 20 µM |
| CAL-27 (head and neck, adherent) | 0.879 | > 20 µM | 0.345 | 0.000736 µM | 0.787 | 4.53 µM | 0.98 | > 10 µM | 0.932 | > 10 µM | 0.971 | > 20 µM |
| CAL-29 (bladder, adherent) | 0.947 | > 20 µM | 0.729 | 0.00952 µM | 0.941 | > 10.2 µM | 0.975 | > 10 µM | 0.938 | > 10 µM | 0.974 | > 20 µM |
| CAL-33 (head and neck, adherent) | 0.821 | 11.6 µM | 0.478 | 0.00174 µM | 0.923 | > 10.2 µM | 0.912 | > 10 µM | 0.955 | > 10 µM | 0.979 | > 20 µM |

A lower IC50 marks a more sensitive line; a limit (>, <) means that the fit lies beyond the doses tested. AUC, from the same fit, is the share of area under the viability curve across the 256-fold dose range; values near 1 show little effect. For some of these results: A top dose marked as inferred was derived from the fitted curves, not read from the paper. For some of these results: Drugs with an entry number were screened twice under separate entries, and the two screens often disagree.
